# The list shows a part of the results.
# Tested on: T1, C. trachomatis L2/434/Bu expressing GFP (CTL2-GFP)
# T1 construct: L2/434/Bu GFP intracellular growth in HeLa cells
# Parameters: species or system HeLa; C. trachomatis total inclusion area by high-content imaging, normalised to DMSO
# Settings: total inclusion area; 28.5 h, 10 µM; inhibitor
# Method in brief: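 Host cell viability was gauged from Hoechst-stained nuclei counts, while chlamydial growth was taken from total inclusion area and inclusion number per well. Cells were fixed and imaged by high-content microscopy once bulk GFP and resorufin fluorescence had been measured.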
row,SMILES,% of control remaining
1,O=C(CSc1nnc(-c2cccnc2)o1)c1ccc(Oc2ccccc2)cc1 [CBK266327],106.683
2,Cn1c(=O)n(C)c2cc(CNCc3cccnc3)ccc21 [CBK268432C],118.441
3,Oc1ccc(Br)cc1CN1CCN(Cc2cccc3ccccc23)CC1 [CBK263662],92.3667
4,CN(CC1CC1)C(=O)Cn1cnc2c(F)cc(Br)cc2c1=O [CBK305227],65.0386
5,CCNC(=O)c1cc2c(=O)n3ccccc3nc2n(C)c1=N [CBK287762],67.0008
6,Cc1noc(C)c1CC(=O)N1CCC2(C/C=C/C[C@H]3COCC[C@@H]3NC(=O)CNC2=O)CC1 [CBK292071],98.4813
7,CC(=O)N1CCc2cc(C(O)CN3CCN(c4nsc5ccccc45)CC3)ccc21 (stereo not shown) [CBK283092],77.5645
8,O=C(CO)N1CC2(CCN(CCn3cccc3)CC2)c2ccccc21 [CBK143953],82.1486
9,Cc1cc(C)cc(-c2ccc(CC3(C(=O)NCC4CCCOC4)CCOCC3)cc2)c1 (stereo not shown) [CBK286524],96.8101
10,CCc1c(C(=O)N(C)Cc2cnn(C(C)C)c2)[nH]c2ccccc12 [CBK307501],51.5025
11,CCOC(=O)CC(=O)COc1noc2nc(C)cc(C)c12 [CBK269595],98.8969
12,CN(C)CCN(C)c1nc(-c2ccc3c(c2)OCO3)cn2ccnc12 [CBK066381],97.4149
13,O=C1COc2ccccc2C/C=C/CC2(CCN(C(=O)Cn3cccn3)CC2)C(=O)NCCN1 [CBK292003],106.212
14,O=C1CCC(N2CCN(c3ncnc4ccccc34)CC2)CCN1 (stereo not shown) [CBK304393],38.9895
15,Cc1nc(-c2ccc(S(=O)(=O)N3CCC(Cc4ccccc4)CC3)cc2)cs1 [CBK265494],83.9084
16,Nc1ccc(-c2nnn(CC(=O)NC3CCCCC3)n2)cc1 [CBK135771],99.928
17,CCOC(=O)CN1C(=O)N2CCCN=C2c2ccc(Cl)cc21 [CBK284401],73.0219
18,Cc1ccc(C(=O)Nc2ncn(CC(=O)N3CCCCCC3)n2)s1 [CBK304951],44.6774
19,O=C(O)CNS(=O)(=O)c1cc(Br)c(Cl)s1 [CBK034455],87.9437
20,CNc1ncc(CN(C)C(=O)Cn2nc(C)c3ccccc3c2=O)cn1 [CBK307704],104.687
21,CN1CCN(CCCNC(=O)N2CCCC(CO)C2)CC1 (stereo not shown) [CBK156029],106.998
22,Cc1ccc(N2C(=O)CSC23C(=O)Nc2ccccc23)cc1Br (stereo not shown) [CBK093472],79.295

# Source: publication PMC12040169 (PLOS Biology, 2025)
